# PubChem BioAssay AID651820 (National Center for Advancing Translational Sciences (NCATS), 2012)
# Screen size: about 340,000 compounds; about 12,000 (3.5%) were called active. This list was built around the results that the source calls inconclusive (neither active nor inactive); the mix of calls is not that of the screen. The call rests on the fitted dose curve; in most records, active means well fitted inhibition curve with a large enough effect; inconclusive means small, poorly fitted or top-dose-only effect, or another doubt; inactive means no such curve, though single readings can be large or run the other way. No potency is given beside an inconclusive call; the fits are too rough.
# Assay: qHTS Assay for Inhibitors of Hepatitis C Virus (HCV)
# Conditions: Huh7.5.1 HCVcc-Cre (HCVcc is cell-culture hepatitis C virus) infection, luciferase reporter, 44 h; series mostly up to 41.8 µM
# Method in brief: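 1,000 cells/well; 4 h culture; + compound; + HCVcc-Cre (~0.5 moi); 44 h; luciferase substrate, RT 15 min; read 15 sec.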
# Potency means the concentration at half of the fitted maximal effect; tags describe the fitted curve by direction and shape.
row,Compound,Potency
1,CCOC(=O)c1sc(NC(=O)CCc2ccccc2)nc1C,"inconclusive [inhibitor, full curve, poor fit]"
2,c1ccc(C2Oc3ccccc3C3CC(c4cccs4)=NN32)cc1 (centres undefined),inactive
3,O=[N+]([O-])c1cccc(/C=C2\CCC(/C=N/Nc3ccc4ccccc4n3)=C2N2CCOCC2)c1,"inconclusive [inhibitor, partial curve]"
4,CSc1nc(SCC(=O)NCc2ccco2)c2c3c(sc2n1)CN(C)CC3,inactive
5,O=C(c1cnn2cccnc12)N1CCN(Cc2ccc3c(c2)OCO3)CC1,"inconclusive [inhibitor, single point]"
6,CCCCNC(=S)Nc1ccc(SC(F)F)cc1,active: 11.2 µM
7,Cc1cc(C)cc(N2CCCn3c2nc2c3c(=O)n(CC(=O)OCc3ccccc3)c(=O)n2C)c1,"inconclusive [inhibitor, partial curve]"
8,Cc1cccc(CNC(=O)Cn2ccc3cc(S(=O)(=O)N4CCCCCC4)ccc32)c1,"inconclusive [inhibitor, single point]"
9,NS(=O)(=O)c1ccc(NC(=O)Nc2ccccc2)cc1,inactive
10,O=C(CN1CCOCC1)NNc1nc(-c2ccccc2)c2cc(Br)ccc2n1,"inconclusive [inhibitor, single point]"
11,CCC(=NCc1ccc(F)cc1)c1c(O)n(C)c(=O)n(C)c1=O,active: 10 µM
12,CN1CCN(c2ccc(S(=O)(=O)N3CCOCC3)cc2NC(=O)Cc2ccccc2F)CC1,"inconclusive [inhibitor, single point]"
13,COc1ccc(C2=C(C=O)Cc3ccccc3O2)cc1,"inconclusive [inhibitor, partial curve, poor fit]"
14,CCCCN(C(=O)CSCc1ccc(C)cc1)c1c(N)n(Cc2ccccc2)c(=O)[nH]c1=O,"inconclusive [inhibitor, single point]"
15,CCN(CC)CCn1c2c(c(SCC(=O)Nc3nc4ccc(C)cc4s3)nc1=O)CCC2,"inconclusive [inhibitor, single point]"
16,COc1cccc(-c2nnc3sc(-c4ccccc4)nn23)c1,"inconclusive [inhibitor, single point]"
17,Cc1cccc(C(=O)Nc2ccc(NC(=O)c3ccccc3)cc2)c1,"inconclusive [inhibitor, partial curve]"
18,COc1ccc(OCC(=O)N2CCN(Cc3nc4cc([N+](=O)[O-])ccc4n3C)CC2)cc1,"inconclusive [inhibitor, single point]"
19,O=c1cnn([C@@H]2O[C@H](CO)[C@@H](O)[C@H]2O)c(=O)[nH]1,inactive
20,N#C/C(=C\c1cn(Cc2ccccc2)c2ccccc12)C(=O)NCc1ccco1,"inconclusive [inhibitor, partial curve]"
21,S=C(Nc1ccc(Nc2ccccc2)cc1)Nc1ccccn1,active: 10 µM
22,COc1cc(C(=O)NCC(=O)N/N=C(/C)c2ccc3c(c2)CCCC3)cc(OC)c1OC,"inconclusive [inhibitor, partial curve]"
23,COC(=O)C1=C(O)C(C(=O)OC)C(c2ccc(C)cc2)C(C#N)(C#N)C1c1ccc(C)cc1 (centres undefined),"inconclusive [inhibitor, single point]"
24,Nc1c(C(=O)Nc2ccccc2F)sc2nc(-c3cccnc3)ccc12,"inconclusive [inhibitor, single point]"
25,CCCCNCCCOc1ccc(C)cc1Br,inactive

row,Compound,Potency
1,c1ccc2sc(N3CCOCC3)nc2c1,inactive
2,CC(NC(=O)c1cc2cc(F)ccc2[nH]1)c1ccccc1 (centres undefined),"inconclusive [inhibitor, single point]"
3,Cn1cc(CNC(=O)C2CCC(=O)N(Cc3cccc(C(F)(F)F)c3)C2)cn1 (centres undefined),inactive
4,COc1cc(C)ccc1OCCOCCOc1ccccc1Br,"inconclusive [inhibitor, partial curve, poor fit]"
5,Clc1ccc(OCCCCCN2CCCC2)c(Br)c1,active: 10 µM
6,CC1CCN(C(=O)COC(=O)c2cc(Cl)c3c(c2)OCO3)CC1,"inconclusive [inhibitor, partial curve, poor fit]"
7,CCCCCC(=O)Nc1cc(S(=O)(=O)N2CCCCC2)ccc1N1CCCCC1,"inconclusive [inhibitor, single point]"
8,Cc1ccc(NC(=O)c2nc[nH]c2C(=O)N2CCc3ccccc3C2)cc1,inactive
9,O=C(Nc1ccc2[nH]c(=O)[nH]c2c1)c1ccc(Br)o1,inactive
10,CN(C)S(=O)(=O)c1ccc(C(=O)OCC2CCCO2)cc1 (centres undefined),inactive
11,COc1ccc(NC(C)=O)cc1NC(=O)CSc1nnc(-c2ccncc2)n1C,inactive
12,COc1ccc(NC(=O)c2cc(-c3ccc(C)c(C)c3O)n[nH]2)cc1Cl,active: 2.51 µM
13,CCN(Cc1ccncc1)C(=O)CCc1nnc(CCc2ccc(OC)cc2)o1,inactive
14,CN(C)C(CNC(=O)CCc1nc2cc(Cl)ccc2n(Cc2ccccc2)c1=O)c1ccccc1 (centres undefined),"inconclusive [inhibitor, single point]"
15,CN(C)c1ccc(/C=N\NC(=O)CC#N)cc1,inactive
16,CCOc1ccccc1NC(=O)Nc1cc(OC)ccc1OC,"inconclusive [inhibitor, partial curve]"
17,CCOc1cc(/C=N/NC(=O)c2ccc(=O)n(C)c2)ccc1O,inactive
18,CC1CCCCN1CCCNC(=O)CN1C(=O)c2cccnc2Oc2ccccc21 (centres undefined),inactive
19,C#C[C@]1(O)CC[C@H]2[C@@H]3CCC4=Cc5nc6nc7ccccc7n6cc5C[C@]4(C)[C@H]3CC[C@@]21C,"inconclusive [inhibitor, partial curve]"
20,CCn1c(=S)sc2c(=O)n(CC(=O)Nc3ccccc3C(F)(F)F)c(C)nc21,inactive
21,Cc1ccccc1C(=O)O/N=C/c1c(N2CCOCC2)n(C)c2ccccc12,active: 1 µM
22,CCCC1NC(C(=O)O)Cc2c1[nH]c1ccccc21 (centres undefined),inactive
23,Cc1ccc(N(CCC(=O)N2CCOCC2)S(=O)(=O)c2ccccc2)cc1,inactive
24,CCCC(=O)N1CCN(c2ccc(NC(=O)c3cc4ccccc4o3)cc2Cl)CC1,active: 2.24 µM
25,COc1ccc(OC)c(NC(=O)CCC(=O)Nc2nnc(C(C)C)s2)c1,inactive

row,Compound,Potency
1,COc1ccc(NC(=O)/C=C/c2ccc(Br)o2)cn1,inactive
2,c1ccc2c(c1)CCN(c1nc3cc4c(cc3s1)OCCO4)C2,"inconclusive [inhibitor, partial curve]"
3,O=C(CN(c1ccc(F)cc1)S(=O)(=O)c1ccccc1)N1CCOCC1,inactive
4,CN(CC(=O)Nc1ccc(Cl)c(C(F)(F)F)c1)C(=O)Cc1n[nH]c(=O)c2ccccc12,"inconclusive [inhibitor, single point]"
5,COc1ccc(CCNc2ccc(C(CC(N)=O)NC(=O)Cc3ccc(Br)cc3)cc2[N+](=O)[O-])cc1 (centres undefined),inactive
6,CN(C)c1oc(/C=C/c2cccs2)nc1S(=O)(=O)c1ccccc1,"inconclusive [inhibitor, single point]"
7,COc1cc2nc(SCc3ccc(Cl)cc3Cl)n(Cc3cccs3)c(=N)c2cc1OC,"inconclusive [inhibitor, single point]"
8,Fc1ccc(NC(=S)NCCc2ccccc2)c(F)c1F,"inconclusive [inhibitor, partial curve, poor fit]"
9,CCc1ccc(-c2nn(-c3ccccc3)cc2CSC(=N)N)cc1,active: 10 µM
10,O=C(O)C1=C[C@H](c2coc3ccccc3c2=O)C[C@H](OCCCCO)O1,"inconclusive [inhibitor, single point]"
11,NC(=O)C1=CC2C3C=CC2(O)C(=O)OC3O1 (centres undefined),active: 8.91 µM
12,Cc1nc(Nc2ccc(Cl)cc2)c2nnn(Cc3ccccc3)c2n1,active: 31.6 µM
13,CCCOc1ccc(N2C(=O)CC(N3CCN(c4nc5ccccc5s4)CC3)C2=O)cc1 (centres undefined),inactive
14,CC1CCN(C(=O)CSc2nnc(Cc3cccn3C)n2-c2ccc(F)cc2)CC1,inactive
15,COCCN(Cc1cc2cc(C)ccc2n2nnnc12)C(=S)Nc1ccc(C)cc1,"inconclusive [inhibitor, partial curve]"
16,CCC(C(=O)Nc1ccccc1-c1ccccc1)c1ccccc1 (centres undefined),"inconclusive [inhibitor, single point]"
17,COc1ccc2nc(/C(C#N)=C\c3ccc(C(=O)O)cc3)[nH]c2c1,inactive
18,Cn1c(O)c(N=NC(=O)c2cccc(S(=O)(=O)N3CCCCC3)c2)c2ccccc21,"inconclusive [inhibitor, partial curve]"
19,Cc1ccc(C)c(/C=N/n2cc(-c3ccccc3)[nH]c2=S)c1,"inconclusive [inhibitor, single point]"
20,Cc1nc(C)c(-c2csc(Nc3ccccn3)n2)s1,active: 8.91 µM
21,CCOc1ccc(/C=N/NC(=O)c2ccccc2C)cc1CN1CC2CC(C1)c1cccc(=O)n1C2 (centres undefined),"inconclusive [inhibitor, single point]"
22,COc1cc(OC)c2c(-c3ccccc3)cc(=O)oc2c1C(CCN1CCCCC1)c1ccc2c(c1)OCO2 (centres undefined),"inconclusive [inhibitor, single point]"
23,CCOc1ccc(Br)cc1C(=O)Nc1ccc(C(=O)NCC(C)C)cc1,"inconclusive [inhibitor, full curve]"
24,CC(=O)c1ccc2c(c1)c(C#N)c1ccccc1[n+]2[O-],"inconclusive [inhibitor, partial curve]"
